# Data: the supplement of paper PMC11417369
# The other results are listed elsewhere or left out.
# Tested on: PfHDP1 homeodomain (GST-tagged)
# Test: gcPBM binding intensity (ln(normalized median fluorescence intensity)); higher = stronger DNA binding
# How it was run: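 Binding intensity is the highest Masliner-normalised natural-log median intensity over replicate spots in either probe orientation. To obtain it, GST-tagged P. falciparum DNA-binding domains made in E. coli were incubated for 1 h on an Agilent 4 × 180k array of primer-extended double-stranded 36-bp intergenic genomic probes plus negative controls. Detection used Alexa488 anti-GST antibody with scanning at 488 nm.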
row,Sequence,gcPBM binding intensity (ln)
1,AATATATAATCAGATGAATTTTTTTTTTTTTTTTCA [CACACA_negctrl_site534],5.84
2,ATATAATATATGTTATGTACATAGTTTTTATTGTTC [XGTACX_site7438],6.61
3,ATATAATGTTAGGGTAGAGGAAGTAACTAATATAAA [CACACA_negctrl_site1153],6.78
4,AATTTTTTATTCTTTGCATGTCATCATATATAATAT [TGCATGCA_site549],6.96
5,ATATAAATATGAAAAAGTACAAGCCATCAAGAAATC [XGTACX_site8140],6.72
6,AATTAGCATAAATGGGTGCTACACAAAAATGCATGT [GTGCAC_site9640],6.65
7,ATTTTTTTACTGGATCCATATTTGCTTTTTTATTTA [CACACA_negctrl_site1108],7.06
8,GTGGATATATGTATATGTACATATGTATGTATATAT [XGTACX_site2412],6.7
9,TCTCTTTTTCGTTCATGTACAAATAAATAAAAATAT [XGTACX_site6558],6.64
10,GTATATTTTATTTTATGTACATATTCATTTTTTATT [XGTACX_site561],7.26
11,TTATATATATGACTTTGTACATATACATATTTTTTA [XGTACX_site4669],6
12,TATTATATATATGCACGTACAAAAATAATAAAGGTA [XGTACX_site3506],8.49
13,TTAATTAAGAAACACACACACATATATATATATATT [CACACA_site2290],6.88
14,TTTTTAATTTACTGTCATAGGTACCTTAACTTATCA [CACACA_negctrl_site1664],6.21
15,ATATAATAAATGTCATGTACATACAACATTTTAACT [XGTACX_site7517],6.39
16,TATTAATAATTTTCATGTACATATGTATTTGTAATA [XGTACX_site858],6.47
17,TGAATAAAGAAACACACACACATATATATATATGTA [CACACA_site17],6.71
18,TACATATACATATTGTGTACATAATAATTATTTATA [XGTACX_site7884],6.65
19,TACTTATGTTCGCACACATGCAAATTAAAAAAAAAA [TGCATGCA_site1023],8.2
20,TTTTAAATAAAATATTGTACATTAAAATTGTAATAT [XGTACX_site2128],6.48
21,ATTATAAATATGTATATACACACTTTTAATATTCAT [CACACA_site9367],6.7
22,TAAGATAAATGATAAAGTACTTTTTTTTTTTAAATA [XGTACX_site2326],5.69

row,Sequence,gcPBM binding intensity (ln)
1,AAGCAAACATATTAATGTACACACACCCACACACAA [XGTACX_site5806],6.96
2,AATTTTAAAAATATAACACACATATATAAAATATAT [CACACA_site3610],6.4
3,AATGAAGAAAAAAAAAGTACATTATTTTTAAAACTT [XGTACX_site563],6.51
4,CAAAAATAAACTATAGTACACACTTATTATTATGAA [CACACA_site2702],6.33
5,ATTTGGCATAGACACACACACACACGCACGCACATA [CACACA_site6424],7.9
6,TATGTTCATCATAGCACACATATATAAATTACAACA [CACACA_site3533],6.65
7,ATTGTAATCATATGAAGTACTAATATATATTTTAAT [XGTACX_site8350],6.72
8,TTTTTATGTAGAATTTTTTTATTTTTTCAAAATGGA [CACACA_negctrl_site166],5.94
9,ATTTATAAAATTAATAGTACATATATTTATATATAT [XGTACX_site4173],6.49
10,TATTGCACAAAATAATTTTATTATACTTTATGTTAG [TGCATGCA_negctrl_site574],10.8
11,TGTATTACGAAAAAATGTACAGAAAAAGAAACAAAA [XGTACX_site2777],7.42
12,TGGGATAGATCATTTACACACACAAAAAAAAAAAAA [CACACA_site2140],6.6
13,TTTGTCATAAGCAATGCATGTAAGTTTCTGACATTA [TGCATGCA_site1007],6.22
14,TAAATAAAAAAACACACACACATATATATATATATA [CACACA_site2269],9.22
15,ATAAAAAAATAAAACACACACATATATATTATATAT [CACACA_site2810],6.85
16,AATGCATTGATTGCATTCAAAAAAAAAAAAAAAAAA [XGTACX_negctrl_site597],6.34
17,AATCATAAAGAACATATAATATATATATATATATAT [CACACA_negctrl_site316],9.08
18,AATAAGATATCTACAACACACATTTAATTTTTTTTT [CACACA_site1641],6.31
19,AATTGTCAGAGAATATGTACTTAAGTATTTATTGTT [XGTACX_site1947],6.47
20,AATATATGCTTTCGTTATATTAAATTCAATTTAATG [GTGCAC_negctrl_site76],6.37
21,AACAACTATTAATTTACACACATGTATTTATTTTAC [CACACA_site5683],6.69
22,TCTTATATATTTATTTGTACATATATATATATATAT [XGTACX_site7214],9.35

row,Sequence,gcPBM binding intensity (ln)
1,AAGGAATGCATATAGGTGCTACACATAAAAATAAAA,7.22
2,TTAAGTAGTACATACACACACATATACAAAAAGAAA [CACACA_site3972],7.2
3,TACTTTTTTCCTATTATGTTTCTTATTTTTATAAAT [XGTACX_negctrl_site561],7.26
4,AAATTTTATGTATAATGTACACATAAATTTTTCTTT [XGTACX_site7266],6.67
5,ATATAATAATAATATTGTACAATAAAAAATATATAT [XGTACX_site7350],6.95
6,ATACAGATAGGATGCACACATAATTCAAATACAATA [CACACA_site4531],8.32
7,AGTAATAATCGGCATGCATGTCAGTGGTAGTATATA [TGCATGCA_site312],6.84
8,ATGTCAAGAACTGAACGTACAAACTTTGTAATATTG [XGTACX_site8754],6.43
9,TCTAATAATAAATACACACACATATATATTTATATA [CACACA_site5169],6.47
10,TTTTTTTTTGAAAAAAGTACTTAATTTTTAAGAAGA [XGTACX_site3591],5.94
11,TTTATATATTAATATGCACACACAAGAAGTAATTAT [CACACA_site9045],9.97
12,AATAATAACATACAGACACACACGTAAAAGCACGTG [CACACA_site253],6.66
13,ATATATACGTATGAATGTATATTTGTTTGAATTTTT [CACACA_negctrl_site524],6.18
14,AATGGGTAAACATACACACACACATATATATATATA [CACACA_site1991],9.19
15,TATATATATTAAAAAGTGCATTATTCATATTATATA [GTGCAC_site9400],8.25
16,TTACAATTTAATATATGTACATATTTGTGATTTATC [XGTACX_site2911],6.37
17,TATAATGTTAAATAATGTACATATATTTTTTTTTTT [XGTACX_site4722],6.29
18,AAAATATCTTGTTACTGTACAAATATAAATAAATAC [XGTACX_site3684],6.44
19,TTTATTAATAATTATACACACATATAAAATGAATAA [CACACA_site1359],6.33
20,GGAATATTAAAAAAATGTACAAAAAATAATATCCAT [XGTACX_site2596],6.88
21,TATTAATATTTTTGTTGTACTTAAAAATGATGGTAG [XGTACX_site3501],6.5
22,CATATACACGAACACACACACATATAAATAAATATA [CACACA_site6379],7.23

row,Sequence,gcPBM binding intensity (ln)
1,TATTATTTTAATTATTCACACATTATTATAAAAATT [CACACA_site5538],6.26
2,TTATGTCATAAATGCACACATATACATTGTTTTGAT [CACACA_site646],10.4
3,TCTTTAACAAGTTAAACACACATACATAAATACATA [CACACA_site5406],6.54
4,GGGAAAATATTTGGGTGTACAAACAAATTAGCTAGC [XGTACX_site6795],6.75
5,TATGATTTCACATAATGTACTTGCTAATTCGTGAAT [XGTACX_site1408],5.94
6,ATATAAATAAACAGGTGTACTATAATGTTCATAGTA [XGTACX_site1553],6.41
7,AAGAAAATATAAAATGCACACTATAAATTGTATTTA [CACACA_site4257],9.23
8,TAATTATATATATATGCATGTTATAATTTTTATTTT [TGCATGCA_site78],6.16
9,CAAAAAATTTGACGTAGTACTTAAAAAAAAAAAAAA [XGTACX_site4523],6.43
10,ATTTGCTCACAAGAAGCACACAAAAAAAGAAAAAAA [CACACA_site9338],7.34
11,TATTTGCTACATATATGTACTAAAAACTTTTTGCTT [XGTACX_site2362],7.17
12,TATTATAAAAATATTCAGATACATTAACTTACTTTT [XGTACX_negctrl_site4],5.83
13,TGTGTGTGTTCATGGGTGCTTTAATACTATTATAGG [GTGCAC_site9465],7.19
14,TATCAATTTTTCTGGCTATCCAATTAGGGGAAGCCA [CACACA_negctrl_site1045],5.47
15,GAAAATGAAATCCTTGCATGTAAAATTAAAATAGAA [TGCATGCA_site569],6.29
16,TTTTTTTCTTAAAGATGTACTTTTTAAAAATAATCT [XGTACX_site1429],6.18
17,GTAGTAATAAATTAAAGTACAGAATATATTATACTA [XGTACX_site2809],6.4
18,ATGAATTATAAATATTCACACAATATTTTTCATATG [CACACA_site4484],6.38
19,AGTGTGCTCAGCTTAGCACAAATTGGAATACCATGT [CACACA_negctrl_site367],8.85
20,TTTACAGGAAAAAATACACACATTATTTTACCTTAT [CACACA_site2833],6.46
21,ACATGCCAAAATCTAATACAATAATAATAAAAAAAA [XGTACX_negctrl_site160],6.32
22,CAATAAAAATTAAAATGTACAAATAAATATAAATAT [XGTACX_site7265],6.36
